# Data: the supplement of paper PMC9174493
# The list shows a part of the results. Single values of this set are uncertain. Values with irradiation are relative to irradiated vehicle.
# Experiments:
# A549-Dual [1] = test: NF-kB reporter (SEAP) activity, viability-corrected, relative to vehicle (fold change vs vehicle); higher = more activation of STING-IRF / NF-kB immune response reporter; conditions: 10 µM
# A549-Dual [2] = test: ISRE reporter (Lucia luciferase) activity, viability-corrected, relative to vehicle (fold change vs vehicle); higher = more activation of STING-IRF / NF-kB immune response reporter; conditions: 10 µM
# 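Wherever NF-kB reporter (SEAP) activity, viability-corrected, relative to vehicle is given: viability correction based on the alamar blue assay, with concentrations leaving 10% survival or less dropped.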
SMILES,NF-kB reporter (A549-Dual [1]; irradiation: 8 Gy/4 fr),NF-kB reporter (A549-Dual [1]; irradiation: none),ISRE reporter (A549-Dual [2]; irradiation: 8 Gy/4 fr),ISRE reporter (A549-Dual [2]; irradiation: none)
Br.NC(=O)C(c1ccccc1)(c1ccccc1)C1CCN(CCc2ccc3c(c2)CCO3)C1 (stereo not given) [Darifenacin HBr],1.06,0.833,1.26,1.73
O=CC(O)C(O)C(OC1OC(CO)C(O)C(O)C1O)C(O)CO (stereo not given) [Lactose],0.841,0.791,1.11,0.713
COc1ccc(C(=O)CC(=O)c2ccc(C(C)(C)C)cc2)cc1 [Avobenzone],0.667,0.504,0.701,0.54
Cc1c(C(C)C)c(=O)n(-c2ccccc2)n1C [Propyphenazone (4-Isopropylantipyrine)],0.805,0.86,0.67,0.512
Cc1nnc(C(=O)NC(C)(C)c2nc(C(=O)NCc3ccc(F)cc3)c([O-])c(=O)n2C)o1.[K+] [Raltegravir potassium],0.601,0.86,0.549,0.677
C#CC1(O)CCC2C3CCC4=CC(=O)CCC4C3C(=C)CC21CC (stereo not given) [Etonogestrel],0.427,0.909,0.211,0.4
COc1ccc(/C=C/C(=O)Nc2ccccc2C(=O)O)cc1OC [Trans-Tranilast],0.856,0.828,0.937,0.733
CN1C(=O)OC(C)(C)C1=O [Trimethadione],1.19,1.08,1.12,0.711
N[C@@H](Cc1c[nH]c2ccc(O)cc12)C(=O)O [L-5-Hydroxytryptophan],0.838,1.07,0.823,0.698
CC(N)C12CC3CC(CC(C3)C1)C2 (stereo not given) [Rimantadine],0.953,1.03,1.13,0.97
CC(C)(C)C(=O)OCOP(=O)(COCCn1cnc2c(N)ncnc21)OCOC(=O)C(C)(C)C [Adefovir Dipivoxil],1.21,1.35,1.35,2.96
"Cc1oc(=O)oc1CN1CCN(c2cc3c(cc2F)c(=O)c(C(=O)O)c2n3C(C)S2)CC1 (stereo not given) [Prulifloxacin (NM441, AF 3013)]",0.966,1.1,0.879,0.88
COc1ccccc1OCCNCC(O)COc1cccc2[nH]c3ccccc3c12 (stereo not given) [Carvedilol],1.06,0.928,1.69,1.59
C[C@H](O)[C@@H](O)[C@@H](O)[C@H](O)C=O [L-Fucose],1.9,–,1.75,–
O=C(O)c1cccnc1Nc1cccc(C(F)(F)F)c1 [Niflumic acid],0.803,0.955,0.625,0.606
Cc1ccc(C(=O)c2ccc(CC(=O)[O][Na])n2C)cc1.O.O [Tolmetin Sodium],0.779,1.56,0.527,2.61
CC(OC(=O)OC1CCCCC1)OC(=O)C1=C(CSc2nnnn2CCN(C)C)CSC2C(NC(=O)Cc3csc(N)n3)C(=O)N12.Cl.Cl (stereo not given) [Cefotiam Hexetil Hydrochloride],1.13,1.96,0.126,1.46
CS(=O)(=O)O.O=C(NC1CCN(CCCCC2(C(=O)NCC(F)(F)F)c3ccccc3-c3ccccc32)CC1)c1ccccc1-c1ccc(C(F)(F)F)cc1 [Lomitapide Mesylate],–,1.54,–,1.98
COC(=O)NC(C(=O)NC(Cc1ccccc1)C(O)CN(Cc1ccc(-c2ccccn2)cc1)NC(=O)C(NC(=O)OC)C(C)(C)C)C(C)(C)C (stereo not given) [Atazanavir],0.772,0.852,0.791,0.815
NCCCCC(NC(CCc1ccccc1)C(=O)O)C(=O)N1CCCC1C(=O)O (stereo not given) [Lisinopril],0.873,1.2,0.811,0.984
CCCC(CCC)C(N)=O [Valpromide],0.823,0.829,0.819,0.546
CCC(C)C(N)C1=NCC(C(=O)NC(CC(C)C)C(=O)NC(CCC(=O)[O-])C(=O)NC(C(=O)NC2CCCCNC(=O)C(CC(N)=O)NC(=O)C(CC(=O)[O-])NC(=O)C(Cc3c[nH]cn3)NC(=O)C(Cc3ccccc3)NC(=O)C(C(C)CC)NC(=O)C(CCCN)NC2=O)C(C)CC)S1.[Zn+2] (stereo not given) [Bacitracin Zinc],0.797,0.99,0.728,0.742
CC(C)(C)CC(C)(C)c1ccc(O)c(Cc2ccc(Cl)cc2Cl)c1 [Clofoctol],–,4.68,–,0.641
CNCCC(Oc1ccc(C(F)(F)F)cc1)c1ccccc1.Cl (stereo not given) [Fluoxetine HCl],0.566,0.856,0.747,0.97
Cc1[nH]c2ccccc2c1CCNCc1ccc(/C=C/C(=O)NO)cc1 [Panobinostat (LBH589)],–,5.8,–,2.73
CC(C)(C)NC(=O)C1CCC2C3CCC4NC(=O)C=CC4(C)C3CCC12C (stereo not given) [Finasteride],0.8,0.841,0.816,0.72
CC(=O)Nc1nnc(S(N)(=O)=O)s1 [Acetazolamide],0.694,1.37,0.656,0.756
